Reference: the supplement of paper PMC11417369
The other results are listed elsewhere or left out.

System: PfAP2-HC AP2 domain (GST-tagged)
Experiment: gcPBM binding intensity (ln(normalized median fluorescence intensity)); higher = stronger DNA binding
How it was run: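 Binding intensity is the highest Masliner-normalised natural-log median intensity over replicate spots in either probe orientation. To obtain it, GST-tagged P. falciparum DNA-binding domains made in E. coli were incubated for 1 h on an Agilent 4 × 180k array of primer-extended double-stranded 36-bp intergenic genomic probes plus negative controls. Detection used Alexa488 anti-GST antibody with scanning at 488 nm.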

Sequence	gcPBM binding intensity (ln)
TTATTTTAAATTAACACATGCATAATATATGTATAT [TGCATGCA_site597]	9.47
CAATGTATTTAGAATACATGCATATTTTCATAATGT [TGCATGCA_site221]	9.58
AATTATGCACAAATCACACATATAAAATAAAAAGTG [CACACA_site4474]	9.79
AAATATTTATATGTTACACACTGTTTATAATTTTCT [CACACA_site4868]	9.81
ATATAGTTTCACATGTGTACATAAAAATACACTTGT [XGTACX_site3339]	9.69
ACAAAAATGAGATGGTGTACGCACAAATAAATAATA [XGTACX_site5221]	10
TTTAATTTATATAATGATATTAAGTTGGTTATTAGG [CACACA_negctrl_site329]	9.35
AAATCCATATAGGATTGTACATATATTATATATATA [XGTACX_site8818]	9.59
AATTCTTTACTATTCACACATATAAATATTCACTTT [CACACA_site4886]	9.83
CAAAATGTTAAAGATACACACCTAACAAACACAAAA [CACACA_site4685]	10.5
ACATATATATTTATATGTACATATATTTATATATAT [XGTACX_site7469]	9.64
GTGGTATAAATTTTATGTACTTAATAACTCATTAAT [XGTACX_site5555]	9.7
AAAAATATTTAAAATACACACATATCTATAATATAT [CACACA_site7032]	9.83
AAAAAAAAAAAACACACACACACAAATACATACACA [CACACA_site706]	10.7
TACTTACCTATAATAACACACAAGAAAAAAATAAAA [CACACA_site6616]	9.79
AAATAATATCATAAATGTACATATATCATATTATTA [XGTACX_site5372]	9.58
TATAAAATTATGTGTACACAAATATAACTTTTCTTT [CACACA_site5554]	9.64
CATCCAAAAATATTATGTACTAAATTTGGATGTATT [XGTACX_site3954]	9.56
TATTCATATTCCAAGTGTACACATAAATCCCTAATA [XGTACX_site4131]	9.52
AAAATATTTCTTCTTTGTACTTATATATATTTAATT [XGTACX_site5446]	9.67
TTAATAATTATAACATGTACATACACTAAATTTTTT [XGTACX_site8953]	9.67
CAAATATATATTTATTGTACATATTGTTTATATGGT [XGTACX_site5246]	9.68
ATAATAACTTGTAAGGTGCATTTTATGTTTTCTTAA	9.56

Sequence	gcPBM binding intensity (ln)
AGAAATAATATTATTCAAGTATTTATTTAATTTTCA [GTGCAC_negctrl_site475]	9.42
AAATTATAGAATCATTGTACTTTTTTTTTTTTTTTT [XGTACX_site1280]	9.45
TATGCTTCAAAATTGTGTACATATATAATATATTAT [XGTACX_site6760]	9.76
TTTTTTTATATTATACGCACTAATATATATATATAT [XGTACX_negctrl_site40]	9.73
TAACACTTTTTTTTTCGTACATATATTATATATATA [XGTACX_site5470]	9.65
AAATAGACATAAAAAGGTACACAAATTGTGTATTAA [XGTACX_site527]	9.93
TTTAATCAATGATTTAATGAAAAAAGCAAAAAAAAA [GTGCAC_negctrl_site213]	9.46
CGTTTGGTACACGTAGTGTTTTCGTTTGAATGTACC [GTGCAC_negctrl_site201]	9.67
TTTAATTTTCCCTTCACACATAATATATATCTGTAT [CACACA_site5370]	9.78
GACATATATAGCAATCGTACATATATTATAAAAGGT [XGTACX_site6891]	9.83
AAAAGGAACAGACACACACACATATATAAATATGTA [CACACA_site7656]	10.5
TATTAATTTATTTGTTGTACGTAAATATGCTTGTTT [XGTACX_site6591]	9.75
AAAAAAAAAAAAAATTGTACCCAAATATTTTTGTAG [XGTACX_site8303]	9.42
TTTTTATTAGGACATGCATACAAAATTAAAAAAAAT [TGCATGCA_site258]	9.5
ATATATATATTTAAGGTGCGATTTTGTTATATTTAA	9.6
TTATTAAAATATTAAAGTACAAAAAAAATAAATAAA [XGTACX_site6507]	9.58
AATTATATTAATATATAATAAAATAGGATGTTATTT [XGTACX_negctrl_site309]	9.59
GTATATAATTTATGTGCACACACTCCTATTTTTAGC [CACACA_site49]	10.1
CTTATTTTATGTTATACACACAAAGAAAAAAAATAA [CACACA_site2165]	9.63
TCAAATGTATATAATTGTACTTATCCTTTTCATTTT [XGTACX_site4879]	9.75
AAAAATTAGAAACACACACACATATATATATATATT [CACACA_site1042]	10.3
TTTTAAGTTTTTGAATGTACGTAATTTGTAAATTCT [XGTACX_site2448]	9.6
TATAAAATACTGTATCGATGGGGGAGGGCGCAGGGG [TGCATGCA_negctrl_site250]	10.9

Sequence	gcPBM binding intensity (ln)
AAAAAAAAAAAAAAAAAAAAAAAAAAAGATTATGAG [CACACA_negctrl_site1088]	9.21
AAGAACAAACAAAATAGTACAATATATATATATATA [XGTACX_site4258]	10.4
TTTAAATATTTTATAGCATGCTACCAATATGTATAT [TGCATGCA_site291]	9.96
AACTATAATTAAAGGATGCACTTGAAGGCATTTCAA [GTGCAC_site9689]	9.66
TATTCATAACAATGATGTACATATATTTTTTTTTTC [XGTACX_site5619]	9.56
CATATATAGATATATACACACATATAGATTTTCTTT [CACACA_site6797]	9.8
TTACTTGTTTATTTTTTTTTTTTTTTTTTTTTTGTT [TGCATGCA_negctrl_site103]	9.29
TAATGGAGAAAATAATGTACTTAGATATTTGTTCTA [XGTACX_site6312]	9.47
TATTCTTATTATTACACACACAATTATATTTACCCC [CACACA_site6381]	10.3
TATATATATATAATAGCATGCTATATTATATATATA [TGCATGCA_site886]	9.45
TTAACATAAATTGTGTCATTTTTTTTTTTTTTTTTA [CACACA_negctrl_site1221]	9.49
TATTTTTTAATTGTTTCACACATTATTTTTTACATA [CACACA_site6078]	9.96
TACACCCAGAAATGCACACACATATATATATATATA [CACACA_site5289]	10.5
ATGAACATGTGACAATGTACATTTATATCTTAAGAA [XGTACX_site4960]	9.72
ATAATATATATATATATGTATGTATATATGTATGTA [GTGCAC_negctrl_site575]	9.93
ATCAGGCAAAATTTTTGTACATATATATTTTATTTT [XGTACX_site1245]	9.8
TTATAAATGTGCGTAGTGCATAAACAAAAAAAAAAT	9.84
AGATTTCAAGGTAATAGATCAATTTTAATTTGTAAA [CACACA_negctrl_site514]	9.39
TTAAAATGAAGAAGTGCACACATATATATATTTATA [CACACA_site8063]	9.95
TTAACACATTTTATGTGTACTCATATGATTTAAAAT [XGTACX_site7516]	9.55
AATTTTTTTTTCTTTTGTACGTAAATATGTGTAGGC [XGTACX_site215]	9.44
CTAATAAAAAAAAAAAGTACATATGACAATATAAAG [XGTACX_site1598]	9.76
TATATATTAGTGTTGACACACACAAAAAAAAAAAAA [CACACA_site8392]	9.92

Sequence	gcPBM binding intensity (ln)
TATAAACAGACGAAAACACACATATGTAGATATATA [CACACA_site6371]	10.1
TGTAGCATTTAATTCACACATAAAAAATGTATCCAT [CACACA_site4986]	9.52
AAAAAAAGTAAAAAGTGTACTTAATATATATATATA [XGTACX_site838]	9.73
TATATGTGATAACACGCACACAAATGTATATAATTT [CACACA_site2593]	10.1
AAAAAAAAAAAACATACACACATTGAACTTTTATAT [CACACA_site3250]	9.85
ATAAAATAAAAATTCTGTACAGAATTAAAAAAATAT [XGTACX_site6961]	9.85
TATTCATGCATATACACACACATATATATATATTTT [CACACA_site3955]	10.2
AAAAAAAAATTAAACATACACACGTTACTATTTTTA [CACACA_site1687]	9.76
ATCATAATTTATTATACACACAATACGTGACCTATT [CACACA_site6977]	9.93
AATGAAAAATTGTAATGTACATAAATAAATAAATAA [XGTACX_site4048]	9.87
TACAATATACCTACTTGTACACAAAATAAAAGTAGT [XGTACX_site6029]	9.68
TTTTATATAAATATCACACACACACGCATGTTTTAA [CACACA_site6187]	10.4
TACACACCTAACTATGCATGCATCAATATAGTGGAT [TGCATGCA_site443]	9.74
AAAAGCTTAAAAAATTGTACATAAATGAATAAATAT [XGTACX_site5201]	9.66
AAAAATAAAACAATTACACACATAACTTTATTTTTA [CACACA_site6563]	9.8
ACAAATGGAACTCCTACAAAAAATTTCCATAATATT [XGTACX_negctrl_site132]	9.6
TAAACCTATTATACGGGTACTTATTTGATTCTTATA [XGTACX_site5292]	9.59
ACCACCATATAACATACATGCATCTTTTTTCCCTTC [TGCATGCA_site583]	10.1
GAACTCATTTAATATTGTACATTCTGATATTTTTTA [XGTACX_site5995]	10
TCTTGTTAATATATTAAATATATCTATAAATATATA [XGTACX_negctrl_site486]	9.66
